These results are taken from PubChem BioAssay AID338 (DTP/NCI, 2004).

For the experiment, the system named is BDF1 mice, P388 leukemia (terephthalanilide-resistant), survival T/C. Description: NCI In Vivo Anticancer Drug Screen. Data for tumor model P388 Leukemia resistant to A Terephthalanilide; NSC 38280 (intraperitoneal) in B6D2F1 (BDF1) mice. The settings on record: endpoint: median survival time; dose: 45.0 mg/kg/injection; schedule: Q01DX010 (ip); vehicle: saline; higher = longer survival. The procedure: The antitumor activity of compounds was measured in mice bearing transplantable tumors. Survival or tumor size were measured and the results are expressed as the measurement made in the treated group (T) divided by the measurement made in the vehicle treated control group (C). The tumor model used in this assay is P388 Leukemia resistant to A Terephthalanilide; NSC 38280 (intraperitoneal) in B6D2F1 (BDF1) mice

Toxic doses and inconclusive results are not listed. For part of its entries the source gives two or more results. The list is limited to them. There may be further records. Values given together are repeats across runs, samples, wells, individuals or studies.

As for `CNc1nc(Nc2ccc(C3=NCCN3)cc2)nc(Nc2ccc(C3=NCCN3)cc2)n1`, the T/C was 94 % of control and 181 % of control.
